Measurements reported in the antibiotic and cytotoxicity screens of Wong et al. (2023).
This is one part of the list.

Columns and labels:
[1] = test system: HSkMC (human skeletal muscle cells); assay: cytotoxicity call (relative viability < 0.9); conditions: 10 µM
[2] = test system: HepG2; assay: cytotoxicity call (relative viability < 0.9); conditions: 10 µM
[3] = test system: S. aureus RN4220; assay: growth inhibition call (relative growth <= 0.2); conditions: 50 µM

Structure (SMILES) | cytotoxicity call [1] | cytotoxicity call [2] | growth inhibition call [3]
COc1ccc2c3c(n(c2c1)C)[C@@H](CO)N(C[C@]13CCN(CC1)C(=O)c1ccncc1)C(=O)C1CCOCC1 | inactive | inactive | inactive
CC(C)NC(=O)Nc1cccc2c1O[C@@H](CN(C)S(=O)(=O)c1ccccc1)[C@H](C)CN([C@H](C)CO)C2=O | inactive | inactive | inactive
COc1ccc(NC(=O)N(C)C[C@@H]2Oc3ccc(NC(=O)Cn4cnnn4)cc3C(=O)N([C@@H](C)CO)C[C@@H]2C)cc1 | inactive | inactive | inactive
COc1ccccc1CNC(=O)C[C@H]1CC[C@@H]2[C@H](COC[C@H](O)CN2C(=O)Nc2ccc(Cl)cc2)O1 | inactive | inactive | inactive
Cc1ccc(C(C)C)cc2c(C)ccc1-2 | inactive | inactive | inactive
Clc1ccc(C2=Nc3cccc4cccc(c34)N2)cc1 | inactive | inactive | inactive
C[C@@H]1CN([C@H](C)CO)C(=O)c2cccc(NS(=O)(=O)c3ccc(Cl)cc3)c2O[C@@H]1CN(C)Cc1ccc(Oc2ccccc2)cc1 | inactive | inactive | inactive
CCNC(=O)[C@@H]1CCCN1C(=O)[C@H](CCCNC(=N)N)NC(=O)[C@H](CC(C)C)NC(=O)[C@@H](COC(C)(C)C)NC(=O)[C@H](Cc1ccc(O)cc1)NC(=O)[C@H](CO)NC(=O)[C@H](Cc1c[nH]c2ccccc12)NC(=O)[C@H](Cc1cnc[nH]1)NC(=O)[C@H]1CCC(=O)N1 | inactive | inactive | inactive
C[C@@H]1CN([C@@H](C)CO)C(=O)Cc2cc(NC(=O)C3CCCCC3)ccc2O[C@@H]1CN(C)Cc1ccc(-c2ccccc2)cc1 | inactive | active | inactive
COCC#Cc1ccc([C@@H]2[C@H]3CN(C(=O)c4cccnc4)CC(=O)N3[C@H]2CO)cc1 | inactive | inactive | inactive
C[C@@H]1CN([C@@H](C)CO)C(=O)c2cc(NC(=O)Cc3ccccc3)ccc2O[C@@H](C)CCCCO[C@@H]1CN(C)Cc1ccc(C(=O)O)cc1 | inactive | inactive | inactive
Cc1noc(C)c1S(=O)(=O)N(C)C[C@H]1Oc2c(NC(=O)C3CC3)cccc2C(=O)N([C@H](C)CO)C[C@H]1C | inactive | inactive | inactive
Cc1noc(C)c1NC(=O)N(C)C[C@H]1Oc2ccc(NS(=O)(=O)c3c(C)noc3C)cc2C(=O)N([C@H](C)CO)C[C@@H]1C | inactive | inactive | inactive
C[C@@H]1CN([C@H](C)CO)C(=O)c2cccc(NS(=O)(=O)c3ccccc3)c2O[C@H]1CN(C)S(=O)(=O)c1cn(C)cn1 | inactive | inactive | inactive
O=C1CCCC2C3CCC[N+]4([O-])CCCC(CN12)C34 (stereo not drawn) | inactive | inactive | inactive
COC(=O)C[C@H]1CC[C@@H]2[C@H](COC[C@@H](O)CN2S(=O)(=O)c2cn(C)cn2)O1 | inactive | inactive | inactive
N=C(N)c1ccc2nc(-c3cc(CC(=O)N[C@@H](CC(=O)O)C(=O)O)cc(-c4cc(S(N)(=O)=O)ccc4O)c3O)[nH]c2c1 | inactive | inactive | inactive
C[C@@H]1CCCCO[C@H](CN(C)C(=O)NC2CCCCC2)[C@H](C)CN([C@@H](C)CO)C(=O)c2cc(NS(=O)(=O)c3ccc(F)cc3)ccc2O1 | inactive | inactive | inactive
C[C@@H]1CN([C@@H](C)CO)C(=O)Cc2cc(NS(=O)(=O)c3ccccc3)ccc2O[C@H]1CN(C)S(=O)(=O)c1cn(C)cn1 | inactive | inactive | inactive

Structure (SMILES) | cytotoxicity call [1] | cytotoxicity call [2] | growth inhibition call [3]
C[C@@H]1CN([C@H](C)CO)C(=O)c2c(c3ccccc3n2C)-c2ccccc2CO[C@H]1CN(C)C(=O)NC1CCCCC1 | inactive | inactive | inactive
C[C@H](CO)N1C[C@H](C)[C@H](CN(C)C(=O)c2ccc3c(c2)OCO3)Oc2cc(-c3cccnc3)ccc2S1(=O)=O | inactive | inactive | inactive
CC(C)NC(=O)[C@@H](N)c1ccccc1 | inactive | inactive | inactive
C[C@@H]1CN([C@H](C)CO)S(=O)(=O)c2ccc(C#Cc3cccnc3)cc2O[C@H]1CN(C)CC1CCOCC1 | inactive | inactive | inactive
Cn1nnc2c(C(N)=O)ncn2c1=O | inactive | inactive | inactive
CC[N+](CC)(CC(=O)Nc1c(C)cccc1C)Cc1ccccc1.O=C([O-])c1ccccc1 | inactive | inactive | inactive
COc1cccc(-c2cn(CC[C@@H]3CC[C@@H](NC(=O)CN(C)C)[C@@H](CO)O3)nn2)c1 | inactive | inactive | inactive
C[C@H](CO)N1C[C@H](C)[C@H](CN(C)C(=O)Nc2cccc(Oc3ccccn3)c2)OCc2cnnn2CCCC1=O | inactive | inactive | inactive
Cc1ccc(S(=O)(=O)N[C@@H]2C=C[C@H](CC(=O)NCCN3CCCCC3)O[C@@H]2CO)cc1 | inactive | inactive | inactive
C[C@H]1CN([C@@H](C)CO)C(=O)c2cccc(NC(=O)c3cnccn3)c2O[C@H]1CN(C)CC1CCCCC1 | inactive | inactive | inactive
O=C(C[C@H]1CC[C@H](NC(=O)CN2CCOCC2)[C@H](CO)O1)NCCc1ccccc1 | inactive | inactive | inactive
C[C@H]1CCCCO[C@H](CN(C)S(=O)(=O)c2cn(C)cn2)[C@@H](C)CN([C@@H](C)CO)C(=O)c2cc(NC(=O)Nc3cccc4ccccc34)ccc2O1 | inactive | inactive | inactive
Cc1ccc(S(=O)(=O)N(C)C[C@@H]2Oc3ccc(NC(=O)C4CC4)cc3C(=O)N([C@H](C)CO)C[C@H]2C)cc1 | inactive | inactive | inactive
COc1ccc(NC(=O)Nc2ccc3c(c2)C(=O)N([C@H](C)CO)C[C@@H](C)[C@@H](CN(C)C(=O)C2CCCCC2)OCCCC[C@H](C)O3)cc1 | inactive | inactive | inactive
CNC(=O)CN1CCO[C@@H]2CN(Cc3nccs3)C[C@@H]21 | inactive | inactive | inactive
C[C@H](CO)N1C[C@H](C)[C@H](CN(C)Cc2ccc(C(=O)Nc3ccccc3N)cc2)Oc2c(NC(=O)C3CCCCC3)cccc2C1=O | inactive | inactive | inactive
C[C@@H]1CN([C@@H](C)CO)C(=O)c2ccccc2-c2ccccc2CO[C@@H]1CN(C)Cc1ccc(-c2ccccc2)cc1 | inactive | inactive | inactive
COc1ccc(S(=O)(=O)N(C)C[C@H]2OCCCC[C@H](C)Oc3ccc(NC(=O)NC4CCCCC4)cc3C(=O)N([C@@H](C)CO)C[C@H]2C)cc1 | inactive | inactive | inactive
COc1ccc(NC(=O)N(C)C[C@H]2Oc3ccc(NC(=O)CCCN(C)C)cc3C(=O)N([C@H](C)CO)C[C@@H]2C)cc1 | inactive | inactive | inactive

Structure (SMILES) | cytotoxicity call [1] | cytotoxicity call [2] | growth inhibition call [3]
O=C(CN1CCOCC1)N[C@@H]1CC[C@@H](CCn2cc(C3CCCC3)nn2)O[C@@H]1CO | inactive | inactive | inactive
COc1ccc(S(=O)(=O)N(C)C[C@H]2OCCCC[C@H](C)Oc3ccc(NC(=O)Nc4ccc(C(F)(F)F)cc4)cc3C(=O)N([C@@H](C)CO)C[C@H]2C)cc1 | inactive | inactive | inactive
Cc1noc(C)c1S(=O)(=O)N(C)C[C@@H]1Oc2ccc(NC(=O)Cc3ccccc3)cc2CC(=O)N([C@H](C)CO)C[C@@H]1C | inactive | inactive | inactive
CC(C)(CCCCCC(O)CCCCCC(C)(C)C(=O)O)C(=O)O | inactive | inactive | inactive
C[C@@H]1CN([C@H](C)CO)C(=O)c2cc(NS(=O)(=O)c3cn(C)cn3)ccc2O[C@H]1CN(C)S(=O)(=O)c1ccccc1 | inactive | inactive | inactive
COc1cccc(NC(=O)N(C)C[C@@H]2Oc3cc(C#CC4(O)CCCC4)ccc3S(=O)(=O)N([C@@H](C)CO)C[C@@H]2C)c1 | inactive | inactive | inactive
O=C(C[C@@H]1CC[C@@H]2[C@H](COC[C@@H](O)CN2S(=O)(=O)c2cccc(Cl)c2)O1)N1CCOCC1 | inactive | inactive | inactive
OCc1cn(Cc2ccccc2)nn1 | inactive | inactive | inactive
COc1ccc(C[C@@H](N)C(=O)N[C@@H]2[C@@H](O)[C@@H](n3cnc4c(N(C)C)ncnc43)O[C@@H]2CO)cc1 | active | active | active
Cn1cnc(S(=O)(=O)N2C[C@H](O)COC[C@@H]3O[C@H](CC(=O)NC4CCC4)CC[C@H]32)c1 | inactive | inactive | inactive
COc1ccc(S(=O)(=O)N(C)C[C@@H]2Oc3ccc(NS(=O)(=O)c4cn(C)cn4)cc3C(=O)N([C@@H](C)CO)C[C@@H]2C)cc1 | inactive | inactive | inactive
O=C1[N-]C(=O)C(c2ccccc2)(c2ccccc2)N1.[Na+] | inactive | inactive | inactive
C[C@@H]1CN([C@H](C)CO)C(=O)c2cc(NS(C)(=O)=O)ccc2O[C@@H]1CN(C)S(C)(=O)=O | inactive | inactive | inactive
CCS(=O)(=O)N1C[C@]2(C1)CN([C@H](CO)c1c2c2ccc(cc2n1C)OC)S(=O)(=O)c1ccccc1 | inactive | inactive | inactive
Cc1noc(C)c1NC(=O)N(C)C[C@@H]1Oc2c(NC(=O)Nc3ccc(C(F)(F)F)cc3)cccc2C(=O)N([C@@H](C)CO)C[C@@H]1C | inactive | inactive | inactive
O=C(NCCN1CCOCC1)[C@@]1(Cc2ccccc2)N=C(c2ccc(OCCCO)cc2)O[C@H]1c1ccccc1 | inactive | inactive | inactive
COc1ccc(CNC(=O)C[C@H]2C[C@@H]3c4cc(NS(=O)(=O)c5ccc(F)cc5)ccc4O[C@@H]3[C@@H](CO)O2)cc1 | inactive | inactive | inactive
COc1cc(OC)nc([C@@H](NC(=O)C2CCN(CCN3C(=O)c4ccccc4C3=O)CC2)c2ccc(F)cc2)n1 | inactive | inactive | inactive
